Measurements from the supplement of paper PMC10037445.
In all, about 2,900 compounds were measured (“NF-kB SEAP reporter activity, fold change vs agonist alone”: median about 0.99, highest 2% from about 2.6 on). Some of the results follow.

Assays:
RAW-Dual [1] = experiment: NF-kB SEAP reporter activity, fold change vs agonist alone; cytotoxicity flag (confluency mask): not cytotoxic; higher = enhanced NF-kB activity
In short: (§1)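 Cytotoxic wells were those whose IncuCyte confluency was below 70% of agonist controls in both mask sets. The cells were RAW-Dual macrophages at 50,000 cells/well in DMEM on 384-well plates, dosed with 50 nL of library stock by pin tool, stimulated with a PRR agonist 1 h later, and kept at 37 °C, 5% CO2 for 20 hours. IRF and NF-κB reporter activity, as fold change over agonist-alone wells, came from supernatant read by QuantiLuc luminescence and QuantiBlue absorbance, respectively.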

RAW-Dual [2] = experiment: NF-kB SEAP reporter activity, fold change vs agonist alone; higher = enhanced NF-kB activity
In short: as §1

RAW-Dual [3] = experiment: NF-kB SEAP reporter activity, fold change vs agonist alone; cytotoxicity flag (confluency mask): cytotoxic (confluency <70% of control); higher = enhanced NF-kB activity
In short: as §1

[4] = agonist: ODN 1826 (TLR9) 0.5 ug/mL
[5] = agonist: Pam2CSK4 (TLR2/6) 0.1 ug/mL
[6] = agonist: Pam3CSK4 (TLR2/1) 0.1 ug/mL
[7] = library stock concentration (final ~1000-fold dilution): 10 mM, cytotoxicity flag (confluency mask): not cytotoxic, agonist: Imiquimod (TLR7) […]
[8] = library stock concentration (final ~1000-fold dilution): 10 mM, cytotoxicity flag (confluency mask): not cytotoxic, agonist: MPLA (TLR4) […]
[9] = library stock concentration (final ~1000-fold dilution): 10 mM, cytotoxicity flag (confluency mask): cytotoxic (confluency <70% of control), agonist: Imiquimod (TLR7) […]
[10] = library stock concentration (final ~1000-fold dilution): 10 mM, cytotoxicity flag (confluency mask): cytotoxic (confluency <70% of control), agonist: MPLA (TLR4) […]

Question: Which “NF-kB SEAP reporter activity” value (RAW-Dual [1]; agonist: LPS (TLR4) 0.1 ug/mL) does the source give for CC[N+](CC)(CC)CCOc1cccc(OCC[N+](CC)(CC)CC)c1OCC[N+](CC)(CC)CC (library stock concentration (final ~1000-fold dilution): 10 mM) here?
Answer: The value was 1.38.

Question: What about the “NF-kB SEAP reporter activity” value (RAW-Dual [1]; [4]) of the same compound?
Answer: The value was 1.11.

Question: And the “NF-kB SEAP reporter activity” value (RAW-Dual [1]; [5])?
Answer: Its value is 1.16.

Question: And the “NF-kB SEAP reporter activity” value (RAW-Dual [1]; [6])?
Answer: The value was 1.27.

Question: How did the “NF-kB SEAP reporter activity” value (RAW-Dual [2]; [7]) turn out when CC[N+](CC)(CC)CCOc1cccc(OCC[N+](CC)(CC)CC)c1OCC[N+](CC)(CC)CC was run?
Answer: Its value is 0.986.

Question: What about the “NF-kB SEAP reporter activity” value (RAW-Dual [2]; [8]) of the same compound?
Answer: Its value is 1.06.

Question: How did the “NF-kB SEAP reporter activity” value (RAW-Dual [2]; [9]) turn out when CN1CCN(Cc2ccc(NC(=O)Nc3ccc(Oc4ccnc(N)n4)cc3)cc2C(F)(F)F)CC1 was run?
Answer: The value was 0.146.

Question: And the “NF-kB SEAP reporter activity” value (RAW-Dual [2]; [10])?
Answer: Its value is 0.248.

Question: CN1CCN(Cc2ccc(NC(=O)Nc3ccc(Oc4ccnc(N)n4)cc3)cc2C(F)(F)F)CC1 (library stock concentration (final ~1000-fold dilution): 10 mM) was tested. Which “NF-kB SEAP reporter activity” value (RAW-Dual [3]; agonist: LPS (TLR4) 0.1 ug/mL) did it give?
Answer: Its value is 0.293.

Question: What about the “NF-kB SEAP reporter activity” value (RAW-Dual [3]; [4]) of the same compound?
Answer: The value was 0.197.

Question: And the “NF-kB SEAP reporter activity” value (RAW-Dual [3]; [5])?
Answer: The value was 0.0678.

Question: And the “NF-kB SEAP reporter activity” value (RAW-Dual [3]; [6])?
Answer: The value was 0.129.

Question: For CC(C(=O)O)c1ccc(C(=O)c2cccs2)cc1 (configuration not stated) (library stock concentration (final ~1000-fold dilution): 10 mM), which “NF-kB SEAP reporter activity” value (RAW-Dual [1]; agonist: LPS (TLR4) 0.1 ug/mL) is on record?
Answer: Its value is 1.19.

Question: And the “NF-kB SEAP reporter activity” value (RAW-Dual [1]; [4])?
Answer: Its value is 0.999.

Question: What about the “NF-kB SEAP reporter activity” value (RAW-Dual [1]; [5]) of the same compound?
Answer: Its value is 1.06.

Question: What about the “NF-kB SEAP reporter activity” value (RAW-Dual [1]; [6]) of the same compound?
Answer: The value was 1.07.

Question: Which “NF-kB SEAP reporter activity” value (RAW-Dual [2]; [7]) does the source give for CC(C(=O)O)c1ccc(C(=O)c2cccs2)cc1 (configuration not stated) here?
Answer: The value was 0.601.

Question: What about the “NF-kB SEAP reporter activity” value (RAW-Dual [2]; [8]) of the same compound?
Answer: The value was 0.825.

Question: Which results are given for CN1CCN(c2nc(C3=C(c4c[nH]c5ccccc45)C(=O)NC3=O)c3ccccc3n2)CC1?
Answer: NF-kB SEAP reporter activity (RAW-Dual [2]; [9]): 2.99; NF-kB SEAP reporter activity (RAW-Dual [2]; [10]): 2.19

Question: Which results are given for CN1CCN(c2nc(C3=C(c4c[nH]c5ccccc45)C(=O)NC3=O)c3ccccc3n2)CC1 (library stock concentration (final ~1000-fold dilution): 10 mM)?
Answer: NF-kB SEAP reporter activity (RAW-Dual [3]; agonist: LPS (TLR4) 0.1 ug/mL): 2.03; NF-kB SEAP reporter activity (RAW-Dual [3]; [4]): 1.29; NF-kB SEAP reporter activity (RAW-Dual [3]; [5]): 1.84; NF-kB SEAP reporter activity (RAW-Dual [3]; [6]): 3.14

Question: COc1cc2ncnc(Nc3ccc(F)c(Cl)c3)c2cc1OCCCN1CCOCC1 was tested. Which “NF-kB SEAP reporter activity” value (RAW-Dual [2]; [9]) did it give?
Answer: Its value is 2.14.

Question: And the “NF-kB SEAP reporter activity” value (RAW-Dual [2]; [10])?
Answer: Its value is 1.5.

Question: COc1cc2ncnc(Nc3ccc(F)c(Cl)c3)c2cc1OCCCN1CCOCC1 (library stock concentration (final ~1000-fold dilution): 10 mM) was tested. Which “NF-kB SEAP reporter activity” value (RAW-Dual [3]; agonist: LPS (TLR4) 0.1 ug/mL) did it give?
Answer: The value was 1.67.

Question: What about the “NF-kB SEAP reporter activity” value (RAW-Dual [3]; [4]) of the same compound?
Answer: Its value is 2.23.

Question: And the “NF-kB SEAP reporter activity” value (RAW-Dual [3]; [5])?
Answer: Its value is 1.51.

Question: What about the “NF-kB SEAP reporter activity” value (RAW-Dual [3]; [6]) of the same compound?
Answer: The value was 1.85.

Question: Which results are given for C(#Cc1nc2ncccc2nc1OCCN1CCCC1)c1ccccc1?
Answer: NF-kB SEAP reporter activity (RAW-Dual [2]; [9]): 0.217; NF-kB SEAP reporter activity (RAW-Dual [2]; [10]): 0.232

Question: Which “NF-kB SEAP reporter activity” value (RAW-Dual [3]; agonist: LPS (TLR4) 0.1 ug/mL) does the source give for C(#Cc1nc2ncccc2nc1OCCN1CCCC1)c1ccccc1 (library stock concentration (final ~1000-fold dilution): 10 mM) here?
Answer: The value was 0.216.

Question: And the “NF-kB SEAP reporter activity” value (RAW-Dual [3]; [4])?
Answer: Its value is 0.181.

Question: What about the “NF-kB SEAP reporter activity” value (RAW-Dual [3]; [5]) of the same compound?
Answer: The value was 0.0729.

Question: What about the “NF-kB SEAP reporter activity” value (RAW-Dual [3]; [6]) of the same compound?
Answer: The value was 0.135.

Question: With N=C(N)NCCCC(N)C(=O)NC(CCCNC(=N)N)C(=O)NC(CCCNC(=N)N)C(=O)NC(CCCNC(=N)N)C(=O)NC(CCCNC(=N)N)C(=O)NC(CCCNC(=N)N)C(=O)NC(CCCNC(=N)N)C(=O)NC(CCCNC(=N)N)C(=O)NC(CCCNC(=N)N)C(=O)NC(CS)C(=O)NC(CCC(N)=O)C(=O)NC(CS)C(=O)NC(CCCNC(=N)N)C(=O)NC(CCCNC(=N)N)C(=O)NC(CCCCN)C(=O)NC(CC(N)=O)C(=O)O (configuration not stated) as the compound, how does the “NF-kB SEAP reporter activity” value (RAW-Dual [2]; library stock concentration (final ~1000-fold dilution): 10 mM water, cytotoxicity flag (confluency mask): not cytotoxic, agonist: Imiquimod (TLR7) […]) read?
Answer: Its value is 0.51.

Question: And the “NF-kB SEAP reporter activity” value (RAW-Dual [2]; library stock concentration (final ~1000-fold dilution): 10 mM water, cytotoxicity flag (confluency mask): not cytotoxic, agonist: MPLA (TLR4) […])?
Answer: The value was 0.651.

Question: Which “NF-kB SEAP reporter activity” value (RAW-Dual [1]; agonist: LPS (TLR4) 0.1 ug/mL) does the source give for N=C(N)NCCCC(N)C(=O)NC(CCCNC(=N)N)C(=O)NC(CCCNC(=N)N)C(=O)NC(CCCNC(=N)N)C(=O)NC(CCCNC(=N)N)C(=O)NC(CCCNC(=N)N)C(=O)NC(CCCNC(=N)N)C(=O)NC(CCCNC(=N)N)C(=O)NC(CCCNC(=N)N)C(=O)NC(CS)C(=O)NC(CCC(N)=O)C(=O)NC(CS)C(=O)NC(CCCNC(=N)N)C(=O)NC(CCCNC(=N)N)C(=O)NC(CCCCN)C(=O)NC(CC(N)=O)C(=O)O (configuration not stated) (library stock concentration (final ~1000-fold dilution): 10 mM water) here?
Answer: The value was 1.4.

Question: And the “NF-kB SEAP reporter activity” value (RAW-Dual [1]; [4])?
Answer: Its value is 1.36.

Question: And the “NF-kB SEAP reporter activity” value (RAW-Dual [1]; [5])?
Answer: The value was 1.05.

Question: And the “NF-kB SEAP reporter activity” value (RAW-Dual [1]; [6])?
Answer: Its value is 1.16.
